# The RNAGym collection of RNA variant scans (doi:10.7554/elife.90254)
# Read counts are not given, so values of variants with three or more changes are uncertain.
# B1: LINE1-mini (parent)
# chain: GGCAGAGCUCAACACAGCGUGGCAAAGUGGCUGUGGCUAGACUGCC
# Variants of: B1
# Assay: self-cleavage, relative activity (ratio to wild type); higher = more cleavage; in vitro, sequencing; the parent is a self-cleaving ribozyme
row,Variant,self-cleavage
1,G2A A12G C13A G29C,0.11
2,C18U U43C C45U,0.02
3,G7A G19U U28A,0.02
4,G5U A6U A24U G44A,0.07
5,G1U G2A C10U C23G A25C G30A U32A,0.02
6,G2U C3A U9G C13U,0.01
7,G17C G21C A25G U28A,0.09
8,G1A A6G A41G,0.53
9,C18U G19C U28G C42G,0
10,C3A A11G C13A U28G G35C,0.02
11,G22A C23U A39C G40U,0.14
12,C8G G27U G29U C42A C45G,0.26
13,G40C C42G C46G,0.05
14,C8A G17U G44A,0.16
15,A11G C13A G35A U38C C46U,0
16,C15A A24U A26C C46G,0.04
17,C18U C23A U28G,1.18
18,G1U A12U C13G,0.01
19,G2U C3A A4U G7C C13G,0.1
20,A6U C23U G36U A41G C45A,0.55
21,A16C U28A G29U G33A G36U C45A,0.06
22,A25G A26C G40A,0.02
23,A16G G19A A25G A26U,0.01
24,A24C U28C C42G,0.03

row,Variant,self-cleavage
1,A11G A12U G29A,0.01
2,A11G C31G G36U C42G,0.01
3,U9G A11U C13A,0.01
4,U20A C37G A39G A41U,0.05
5,G5C G29U G44A C45G C46A,0.02
6,U20A G29C U34C G40C,0.05
7,G7U C13U G21A U38G,0.01
8,A4G G17U G27U,0.44
9,A6C G17U U38C C45U,0.02
10,A12C A24C G44C,0.01
11,A11G C23U A24U U32G,0
12,C8G G22U A24C,0.07
13,G5U U32C C42A,0.03
14,A12G G35C U38A,0.08
15,C15A G35U G40A,0.05
16,G21A A25U U34C G35U,0.22
17,G2A C8U A41U,0.38
18,G7U C13U A25G,0.12
19,G2U A4G C10U G40U,0.05
20,C10G G17U G29C C37U,0.01
21,A25C G27A C37A C42G G44U C45U,0
22,A4C G5U A25C C45U,0.06
23,U20G A39U C42U,0.18
24,U9C A16C U20A,0.05

row,Variant,self-cleavage
1,U9A C10U A14G G19U U28A,0.03
2,G2C C18U C37A,0.21
3,G5A G7A C45G,0.22
4,G2A G5U G19A C23G U28G G29C C31G G40U,0.04
5,A25C C37U A39G,0.04
6,C8G C13U C23A C31G A41U,0.01
7,C3U G36C A41C,0.04
8,U9A A14U G30U,0.03
9,G2U A4U U32A,0.02
10,A11G C23U U43A,0
11,A6U A39U U43C C46A,0.02
12,A16U A26U U28C,0.06
13,A25C A41U C46G,0.37
14,G2U G5C A6G G7U A11C A16G G36U,0.01
15,A6G A12U U28G C37U A39C,0.02
16,A26U U34G C37G,0.03
17,C3A U20G G22A G36U,0.22
18,C23A U28C G33U U43G,0.01
19,A11U U28C C45U,0.02
20,A6U A12G G19C G35C,0.02
21,G1C G30C G36A,0.01
22,U9C G30U G40U C46G,0.05
23,C18A A25G G33A,0.04
24,G19A U20G A41C,0.03

row,Variant,self-cleavage
1,G7U C15G A16U C18U G29U,0.06
2,C15A C31A U43A,0.03
3,C8A G17A C42A C45A,0.1
4,G1C G27U U32G C37A C42U C45G,0
5,A4C G22U C37U A39U,1.16
6,U32G C42U C45G,0.07
7,A4G U20C C23G C45U,0.31
8,C3U U38C G40U,0.08
9,C13A G17U C18U C23U G27A,0
10,U28A C31A G35A G36A U43G,0.07
11,C8U A11U A24C A41G,0.01
12,G1U U9G A14C U28C G29C U34G C46A,0
13,C3A A16C G21A C23G A39G U43A,0.1
14,C8A U38C A39C,0.18
15,G1C C3A G33C G44C,0.01
16,A6C C31G U34G,0.06
17,A16C A26U G35C,0.04
18,A16U U20C U34G A41U U43C,0.09
19,G5A C10G C23U A39U,0.03
20,C10U C37U U38C,0.01
21,C10U C15G G35A,0.05
22,C3U A26U C46G,0.21
23,G5A U9G A41G,0.08
24,G2U C8U A14G U28C G29U U34A C37U,0.03

row,Variant,self-cleavage
1,G2U U20C G22C,0.22
2,G1C G5U C10G G21C C46A,0.01
3,G1A U9A C42G,0.29
4,G5U U28C U43A,0.09
5,C23A A24C U32A,0.06
6,U9G A24C G27C G36C,0.06
7,G5A C15U G27C,0.03
8,G1A G29C A41U,0.33
9,C8A U28G C37U,0.03
10,G1A U20C A25G U32C U38A C45U,0.06
11,G1C C15U G30U,0.04
12,A16C G35A C42A,0.06
13,A12U U20C G22C G27C U28G U38C C46U,0
14,U9C A11C U34C C46A,0
15,G1C U9A A14U U32A G40A,0.01
16,U9C G17U C42U,0.03
17,C8U U32G G36A A39C,0.03
18,A11C G27A C42U C46A,0
19,C8G C10U U20A A26C,0.02
20,A11U G19A U20A A25U U28A G29U G40A G44C,0
21,C8A U9G C23U,0.26
22,G2A G5A U34C C37A,0.21
23,A14C G17U A25U,0.06
24,G1U C3U C8A G33C,0.16

row,Variant,self-cleavage
1,G5C U9C G21A G36U,0.02
2,A11U U20G G36A G40A,0
3,A11U G17A C23A,0.03
4,G7C A11G A16U,0.01
5,C8U A12G A14G U20C C37U,0.05
6,G1U C13A G21U G30U,0.02
7,A12G C15A G19U G21U C31G U38G,0.12
8,G1U G35U G40C,0.08
9,U9G A25C G35U,0.02
10,C8U A16U G40C,0.02
11,C13G G27U U28G C31A,0.15
12,C13A C23A G40C C42U U43A,0.04
13,C8U C23U G44U,0.08
14,G19A U34C G35A C42U,0.01
15,C3A U32A G33C C42A,0.06
16,A16G A25U G30U U34C,0.01
17,G30C C37G A41U,0.04
18,C8U G17A A26U G30U,0.08
19,G30C A41C G44A,0.04
20,G1U G7C G17A G33C,0.06
21,G7A C18A G22A,0.07
22,C15A G22U U38C C42U C45U,0.01
23,A12G G27A G29C A39C C42U,0.03
24,G21A U32G A41G C45G,0.03

row,Variant,self-cleavage
1,C3A U32C C42A,0.1
2,C15A G21A C45U,0.12
3,C18U G21U A25C,0.41
4,C13U G17A A24G U28A U34A,0.05
5,A6C G22U G29A,0.87
6,G1C G30U G44A,0.02
7,G1U C8A G27C U32G C37A A39G,0.04
8,C3G C10G A14G,0.05
9,G1C A24G C31G G35A,0.01
10,U20A A25U G40A,0.06
11,G1A A4G G29A U34G,0.11
12,A12U G40A C42G,0.04
13,C8G C13U C45U,0.01
14,A6U C10U G19U G22C C31A G35A,0.04
15,G5C U34A C42G C46G,0.02
16,C8G A12U A14G A41C U43A,0.11
17,A25U G33C C37G,0.03
18,G1C G7U G17A G19C C23A U28G G35U U38A,0.01
19,G5U C31A A39U,0.04
20,C3U A6G A26U G40A,0.1
21,C3G U20A C23U,0.24
22,G1C U9A C10A A16C C23U U28C U38C,0
23,C13U C18A A41G,0.29
